Reference: PubChem BioAssay (NCI)
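Grown in 96-well plates, cells were treated for 48 hours with each compound at five concentrations. Insufficient inhibition: endpoint recorded as highest concentration tested. Abbreviation: GI50, concentration required for 50% inhibition of growth. TGI is the concentration that stops growth completely.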

Tested on: NCI-H322M lung
Test: inhibition of tumour cell growth, NCI panel, 48 h

SMILES	GI50 [µM]	TGI [µM]
C=C1CCC2C3(C)COC(c4ccccc4)OC3CCC2(C)C1CC(Sc1ccccc1)C1=CCOC1=O (stereo not given)	35.3	> 100
C/C(=N/O)c1ccc(NC(=O)CSc2nnc(-c3ccc(-c4nc5ccc(Cl)cc5[nH]4)cc3)o2)cc1	1.98	4.83
COc1ccc2[nH]cc(-c3cc4nc(-c5cn(C)c6ncc(Br)cc56)cc(N)n4n3)c2c1	1.75	5.47
O=C1Nc2cc(Cl)ccc2/C1=C/c1cccc(OCc2ccccc2)c1	11.3	27.5
O=C(Nc1ccc(OCc2ccc(F)cc2)cc1)Nc1ccc(Cl)c(C(F)(F)F)c1	2.93	11.6
